The structures appear in SMILES notation.

The target in test [1] is T1, XacXyl31 (Xanthomonas citri, UniProt A0AAI8ESN9).
T1 construct: gene xylS; recombinant in E. coli (pET28a or pETM11), purified; domains described span residues 38-957
As to the kind of experiment: mass spectrometry of products. The format is biochemical. Conditions: pH 6.5, 45 °C.

Test [2] addresses T1, XacXyl31. As to the kind of experiment: X-ray crystal structure. Conditions: active site, -1 subsite. The format is binding.
Test [3] has as its target T2, XacGalD (Xanthomonas citri, UniProt A0AAI7ZEX2).
T2 construct: gene XAC1772; recombinant in E. coli (pET28a or pETM11), purified; homotetramer, site completed by neighbouring protomer
As to the kind of experiment: X-ray crystal structure. The format is binding. Conditions: active site, completed by D562 of the neighbouring protomer.

Regarding `OC[C@H]1OC(O)[C@H](O)[C@@H](O)[C@@H]1O[C@@H]1O[C@H](CO[C@H]2OC[C@@H](O)[C@H](O)[C@H]2O)[C@@H](O[C@@H]2O[C@H](CO[C@H]3OC[C@@H](O)[C@H](O)[C@H]3O)[C@@H](O)[C@H](O)[C@H]2O)[C@H](O)[C@H]1O` (stereo partly shown) [XXG], the “mass spectrometry of products” value in test [1] (product GXG) was “the products of XacXyl31 using XXXG and XXG as substrates, respectively”.
Consider `OC1OC[C@@H](O)[C@H](O)[C@H]1O` (stereo partly shown) [xylose], for which, in test [2], the X-ray crystal structure is listed as 7KNC (XacXyl31 complexed with xylose).
Regarding `OC[C@H]1OC(O)[C@H](O)[C@@H](O)[C@H]1O` (stereo partly drawn) [D-galactose], the X-ray crystal structure entry in test [3] is listed as “The crystal structure of XacGalD with D-galactose”.
Regarding `OC[C@H]1OC(O)[C@H](O)[C@@H](O)[C@@H]1O[C@@H]1O[C@H](CO[C@H]2OC[C@@H](O)[C@H](O)[C@H]2O)[C@@H](O[C@@H]2O[C@H](CO[C@H]3OC[C@@H](O)[C@H](O)[C@H]3O)[C@@H](O[C@@H]3O[C@H](CO[C@H]4OC[C@@H](O)[C@H](O)[C@H]4O)[C@@H](O)[C@H](O)[C@H]3O)[C@H](O)[C@H]2O)[C@H](O)[C@H]1O` (stereo partly shown) [XXXG], the “mass spectrometry of products” value in test [1] (product GXXG) is “the products of XacXyl31 using XXXG and XXG as substrates, respectively”.

For the origin of these results see publication PMC8245568, “Xyloglucan processing machinery in Xanthomonas pathogens and its role in the transcriptional activation of virulence factors” (Nature Communications, 2021).
